# Source: publication PMC4135351, “Quantitative analysis of mammalian GIRK2 channel regulation by G proteins, the signaling lipid PIP2 and Na^+ in a reconstituted system” (eLife, 2014)
# B1: Human G protein subunit γ2 (natural protein)
# chain: not shown
# modifications: Gγ-linked geranylgeranyl lipid moiety (absent in the C68S mutant)
# notes: G protein subunit γ2 (Gγ2), human; The chain of m2, written alone for the row of the two chains with each other; also called Gγ2; Gγ; source: High Five insect cells, co-infection with Gβ1; purified together with Gβ1 (Talon resin, PreScission digestion, Superdex 200)
# Molecular target: T1, Human G protein subunit β1 (human, UniProt P62873)
# T1 construct: G protein subunit β1 (Gβ1), human; The chain of m2, written alone for the row of the two chains with each other; also called Gβ1; Gβ; source: High Five insect cells, co-infection with Gγ2; purified together with Gγ2 (Talon resin, PreScission digestion, Superdex 200)
# T1 sequence (P62873 whole entry): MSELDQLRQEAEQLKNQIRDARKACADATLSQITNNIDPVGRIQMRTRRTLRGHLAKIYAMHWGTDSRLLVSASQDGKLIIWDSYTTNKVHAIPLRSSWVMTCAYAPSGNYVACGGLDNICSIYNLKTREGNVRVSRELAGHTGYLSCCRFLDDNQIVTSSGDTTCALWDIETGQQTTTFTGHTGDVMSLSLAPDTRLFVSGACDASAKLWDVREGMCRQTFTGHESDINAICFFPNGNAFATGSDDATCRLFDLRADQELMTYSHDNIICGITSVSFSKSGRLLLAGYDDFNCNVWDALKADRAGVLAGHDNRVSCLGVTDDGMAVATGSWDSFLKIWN
# Assay: SEC; co-expressed and co-purified Gβ1 and Gγ2 on Superdex 200 10/300 in 20 mM HEPES pH 8.0, 150 mM KCl, 5 mM DTT, 1 mM EDTA, 0.2% DM
# Details: both partners purified
binder,measurement,value
B1,binding result,binds
